Assay results from the supplement of paper PMC8728848.
This is one part of the list.

Legend:
Assay in all cases: glycan array binding signal (z-score within array); higher = stronger binding
Conditions in all cases: glycan notation: IUPAC condensed, linker removed
[1] = biological target: Glc(b1-4)Glc
How it was run: (§1)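 Glycan array data came from 3228 arrays in the Consortium for Functional Glycomics database, and only arrays with an available protein sequence were kept. Glycan names were put into IUPAC-condensed notation, and columns mapping to the same glycan were averaged. The binding signal is a within-array Z-score, averaged across arrays of one protein sequence run at different concentrations or buffers and across linkers. A negative Z-score can be read as non-binding.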

[2] = biological target: Glc(b1-6)Glc
How it was run: as §1

[3] = biological target: GlcA(b1-3)Gal
How it was run: as §1

[4] = biological target: GlcA(b1-3)GlcNAc
How it was run: as §1

[5] = biological target: GlcA(b1-6)Gal
How it was run: as §1

[6] = biological target: GlcA3S(b1-3)Gal(b1-4)GlcNAc(b1-2)Man
How it was run: as §1

[7] = biological target: GlcA3S(b1-3)Gal(b1-4)GlcNAc(b1-3)Gal(b1-4)Glc
How it was run: as §1

[8] = biological target: GlcNAc(a1-3)Gal(b1-4)GlcNAc
How it was run: as §1

[9] = biological target: GlcNAc(a1-4)Gal(b1-3)GlcNAc
How it was run: as §1

[10] = biological target: GlcNAc(a1-4)Gal(b1-4)GalNAc
How it was run: as §1

[11] = biological target: GlcNAc(a1-4)Gal(b1-4)GlcNAc
How it was run: as §1

[12] = biological target: GlcNAc(a1-4)Gal(b1-4)GlcNAc(b1-3)Gal(b1-4)Glc
How it was run: as §1

[13] = biological target: GlcNAc(a1-4)Gal(b1-4)GlcNAc(b1-3)Gal(b1-4)GlcNAc
How it was run: as §1

[14] = biological target: GlcNAc(a1-4)Gal(b1-4)GlcNAc(b1-3)Gal(b1-4)GlcNAc(b1-3)Gal(b1-4)GlcNAc
How it was run: as §1

[15] = biological target: GlcNAc(a1-4)Gal(b1-4)GlcNAc(b1-3)Gal(b1-4)[Fuc(a1-3)]GlcNAc(b1-3)Gal(b1-4)[Fuc(a1-3)]GlcNAc
How it was run: as §1

[16] = biological target: GlcNAc(a1-6)Gal(b1-4)GlcNAc
How it was run: as §1

[17] = biological target: GlcNAc(b1-2)Gal(b1-3)GalNAc
How it was run: as §1

[18] = biological target: GlcNAc(b1-2)Man(a1-3)[GlcNAc(b1-2)Man(a1-6)]Man(b1-4)GlcNAc(b1-4)GlcNAc
How it was run: as §1

[19] = biological target: GlcNAc(b1-2)Man(a1-3)[GlcNAc(b1-2)Man(a1-6)]Man(b1-4)GlcNAc(b1-4)[Fuc(a1-6)]GlcNAc
How it was run: as §1

[20] = biological target: GlcNAc(b1-2)Man(a1-3)[GlcNAc(b1-4)][GlcNAc(b1-2)Man(a1-6)]Man(b1-4)GlcNAc(b1-4)GlcNAc
How it was run: as §1

[21] = biological target: GlcNAc(b1-2)Man(a1-3)[GlcNAc(b1-4)][GlcNAc(b1-2)Man(a1-6)]Man(b1-4)GlcNAc(b1-4)[Fuc(a1-6)]GlcNAc
How it was run: as §1

[22] = biological target: GlcNAc(b1-2)[GlcNAc(b1-4)]Man(a1-3)[GlcNAc(b1-2)Man(a1-6)]Man(b1-4)GlcNAc(b1-4)GlcNAc
How it was run: as §1

[23] = biological target: GlcNAc(b1-2)[GlcNAc(b1-4)]Man(a1-3)[GlcNAc(b1-4)][GlcNAc(b1-2)Man(a1-6)]Man(b1-4)GlcNAc(b1-4)GlcNAc
How it was run: as §1

[24] = biological target: GlcNAc(b1-2)[GlcNAc(b1-4)]Man(a1-3)[GlcNAc(b1-4)][GlcNAc(b1-2)[GlcNAc(b1-6)]Man(a1-6)]Man(b1-4)GlcNAc(b1-4)GlcNAc
How it was run: as §1

[25] = biological target: GlcNAc(b1-2)[GlcNAc(b1-4)]Man(a1-3)[GlcNAc(b1-4)][GlcNAc(b1-2)[GlcNAc(b1-6)]Man(a1-6)]Man(b1-4)GlcNAc(b1-4)[Fuc(a1-6)]GlcNAc
How it was run: as §1

[26] = biological target: GlcNAc(b1-2)[GlcNAc(b1-6)]Man(a1-6)[GlcNAc(b1-2)Man(a1-3)]Man(b1-4)GlcNAc(b1-4)GlcNAc
How it was run: as §1

[27] = biological target: GlcNAc(b1-2)[GlcNAc(b1-6)]Man(a1-6)[GlcNAc(b1-2)Man(a1-3)]Man(b1-4)GlcNAc(b1-4)[Fuc(a1-6)]GlcNAc
How it was run: as §1

[28] = biological target: GlcNAc(b1-2)[GlcNAc(b1-6)]Man(a1-6)[GlcNAc(b1-4)][GlcNAc(b1-2)Man(a1-3)]Man(b1-4)GlcNAc(b1-4)GlcNAc
How it was run: as §1

[29] = biological target: GlcNAc(b1-3)Fuc
How it was run: as §1

[30] = biological target: GlcNAc(b1-3)Gal
How it was run: as §1

[31] = biological target: GlcNAc(b1-3)Gal(b1-3)GalNAc
How it was run: as §1

[32] = biological target: GlcNAc(b1-3)Gal(b1-4)Glc
How it was run: as §1

[33] = biological target: GlcNAc(b1-3)Gal(b1-4)GlcNAc
How it was run: as §1

[34] = biological target: GlcNAc(b1-3)Gal(b1-4)GlcNAc(b1-2)Man(a1-3)[GlcNAc(b1-3)Gal(b1-4)GlcNAc(b1-2)Man(a1-6)]Man(b1-4)GlcNAc(b1-4)GlcNAc
How it was run: as §1

[35] = biological target: GlcNAc(b1-3)Gal(b1-4)GlcNAc(b1-2)Man(a1-3)[GlcNAc(b1-3)Gal(b1-4)GlcNAc(b1-2)Man(a1-6)]Man(b1-4)GlcNAc(b1-4)[Fuc(a1-6)]GlcNAc
How it was run: as §1

[36] = biological target: GlcNAc(b1-3)Gal(b1-4)GlcNAc(b1-2)[GlcNAc(b1-3)Gal(b1-4)GlcNAc(b1-6)]Man(a1-6)[GlcNAc(b1-3)Gal(b1-4)GlcNAc(b1-2)Man(a1-3)]Man(b1-4)GlcNAc(b1-4)GlcNAc
How it was run: as §1

[37] = biological target: GlcNAc(b1-3)Gal(b1-4)GlcNAc(b1-3)Gal(b1-4)GlcNAc
How it was run: as §1

B1: Siglec-E (Mus musculus), Q91Y57 (protein)
chain: MLLLLLLLLLWGIKGVEGQNPQEVFTLNVERKVVVQEGLCVLVPCNFSYLKKRLTDWTDSDPVHGFWYREGTDRRKDSIVATNNPIRKAVKETRNRFFLLGDPWRNDCSLNIREIRKKDAGLYFFRLERGKTKYNYMWDKMTLVVTALTNTPQILLPETLEAGHPSNLTCSVPWDCGWTAPPIFSWTGTSVSFLSTNTTGSSVLTITPQPQDHGTNLTCQVTLPGTNVSTRMTTRLNVSYAPKNLTVTIYQGADSVSTILKNGSSLPISEGQSLRLICSTDSYPPANLSWSWDNLTLCPSKLSKPGLLELFPVHLKHGGVYTCQAQHALGSQHISLSLSPQSSATLSEMMMGTFVGSGVTALLFLSVCILLLAVRSYRRKPARPAVVAPHPDALKVSVSQNPLVESQADDSSEPLPSILEAAPSSTEEEIHYATLSFHEMKPMNLWGQQDTTTEYSEIKFPQRTAWP
[1]
  glycan array binding signal (z-score): -0.196
[2]
  glycan array binding signal (z-score): 1
[3]
  glycan array binding signal (z-score): -0.395
[4]
  glycan array binding signal (z-score): -0.232
[5]
  glycan array binding signal (z-score): 0.097
[6]
  glycan array binding signal (z-score): -0.207
[7]
  glycan array binding signal (z-score): -0.117
[8]
  glycan array binding signal (z-score): -0.313
[9]
  glycan array binding signal (z-score): -0.587
[10]
  glycan array binding signal (z-score): -0.452
[11]
  glycan array binding signal (z-score): -0.41
[12]
  glycan array binding signal (z-score): -0.365
[13]
  glycan array binding signal (z-score): -0.588
[14]
  glycan array binding signal (z-score): -0.453
[15]
  glycan array binding signal (z-score): 0.187
[16]
  glycan array binding signal (z-score): -0.267
[17]
  glycan array binding signal (z-score): -0.364
[18]
  glycan array binding signal (z-score): -0.12
[19]
  glycan array binding signal (z-score): -0.183
[20]
  glycan array binding signal (z-score): -0.191
[21]
  glycan array binding signal (z-score): -0.566
[22]
  glycan array binding signal (z-score): -0.448
[23]
  glycan array binding signal (z-score): 1.87
[24]
  glycan array binding signal (z-score): -0.343
[25]
  glycan array binding signal (z-score): -0.517
[26]
  glycan array binding signal (z-score): -0.332
[27]
  glycan array binding signal (z-score): -0.408
[28]
  glycan array binding signal (z-score): -0.232
[29]
  glycan array binding signal (z-score): -0.256
[30]
  glycan array binding signal (z-score): -0.394
[31]
  glycan array binding signal (z-score): 0.076
[32]
  glycan array binding signal (z-score): -0.344
[33]
  glycan array binding signal (z-score): -0.519
[34]
  glycan array binding signal (z-score): -0.123
[35]
  glycan array binding signal (z-score): 0.261
[36]
  glycan array binding signal (z-score): -0.704
[37]
  glycan array binding signal (z-score): -0.57
